The results in this text go back to PubChem BioAssay AID651582 (Sanford-Burnham Center for Chemical Genomics, 2012).

The list shows a part of the results. These are further read-outs of the screen, such as a control signal, another cell line or another target. No call is given for them. Compounds called inactive in the main read-out are mostly missing here.

This assay in a line: inhibitors of triacylglycerol accumulation, primary screen, cell-based, uHTS, fluorescence, H9c2 (AID 651582). The following applies: H9c2 cells, Nile Red lipid (TAG) fluorescence; measured here:; at 12.5 µM; cells loaded with 200 µM oleic acid.
Turning to `COC(=O)Cc1ccc(NC(=O)c2ccc(C(C)(C)C)cc2)cc1`, the DAPI nuclei signal change (viability), lower = more cytotoxic was -8.17%.

Consider `CCOC(=O)c1c(NC(C)=O)sc2c(OCC(O)CN(CC)CC)c(Br)ccc12` (configuration not stated), for which the DAPI nuclei signal change (viability), lower = more cytotoxic is -6.93%.

Turning to `Cc1nn2c(N3CCCC3)cc(C(C)C)nc2c1-c1ccccc1`, the DAPI nuclei signal change (viability), lower = more cytotoxic came to 11.1%.

`COc1cc(-c2cnc3c(NC=O)cc(-c4cccnc4)cn23)cc(OC)c1OC`: the DAPI nuclei signal change (viability), lower = more cytotoxic is -25.6%.

For `COc1ccc2nc(NC(=O)c3cccc(OCc4c(C)noc4C)c3)sc2c1`, the DAPI nuclei signal change (viability), lower = more cytotoxic was -17.9%.

Turning to `CC(C)Cc1nc2sc3c(NCc4ccco4)ncnc3c2c2c1COC(C)(C)C2`, the DAPI nuclei signal change (viability), lower = more cytotoxic is -4.13%.

`CCOc1ccccc1-c1nc(-c2ccc(NC(=O)Cc3ccccc3OC)cc2)no1`: the DAPI nuclei signal change (viability), lower = more cytotoxic was found to be 4.23%.

Turning to `CCCCN1C=C(C(=O)OC)C(c2ccccc2C(F)(F)F)C(C(=O)OC)=C1`, the DAPI nuclei signal change (viability), lower = more cytotoxic came out at 33.1%.

Turning to `COc1ccccc1N(/N=C1\Sc2ccccc2C1=O)C(C)=O`, the DAPI nuclei signal change (viability), lower = more cytotoxic is -7.23%.

With `O=C1c2ccccc2C(=O)c2c1ccc(C(=O)N1CCCCC1)c2NCCO`, the DAPI nuclei signal change (viability), lower = more cytotoxic is -5.73%.

For `Cc1c(O)ccc(/C=N/Nc2nc(-c3cccnc3)nc3ccccc23)c1O`, the DAPI nuclei signal change (viability), lower = more cytotoxic was -23.2%.

Take `Nc1c(Cl)cc(-c2csc(N3CCCC3c3nc4cc(Cl)c(N5CCCCC5)cc4n3CCOCCO)n2)cc1Cl` (configuration not stated): the DAPI nuclei signal change (viability), lower = more cytotoxic is 4.33%.

Take `CC(=O)n1cc(N(C(=O)CCl)c2ccc(C)cc2)c2ccccc21`: the DAPI nuclei signal change (viability), lower = more cytotoxic was -22.2%.

Turning to `C[C@@]12CCC=C[C@H]1[C@H](c1ccoc1)N(Cc1ccccc1)C2=O`, the DAPI nuclei signal change (viability), lower = more cytotoxic was -39.5%.

With `CC(C)(C)c1cc[n+](C2=C([O-])c3ccccc3C(=O)/C2=N\S(=O)(=O)c2cccs2)cc1`, the DAPI nuclei signal change (viability), lower = more cytotoxic is -19%.

As for `N#CC1=C(SCC(=O)c2ccc(Br)cc2)NC2=C(C(=O)CCC2)C1c1ccco1` (configuration not stated), the DAPI nuclei signal change (viability), lower = more cytotoxic was -18%.

On to `O=C(Nc1ccccc1)c1ccc(NCC2CCCO2)c(S(=O)(=O)N2CCOCC2)c1` (configuration not stated), for which the DAPI nuclei signal change (viability), lower = more cytotoxic was -10.9%.

For the molecule `O=C1COc2ccc(C(=O)CSc3nc4ccccc4c(=O)n3-c3ccc(Cl)c(Cl)c3)cc2N1`, the DAPI nuclei signal change (viability), lower = more cytotoxic was -47.8%.

For `C=CCNc1nc(Nc2ccc(OC)c(OC)c2)c2sc(-c3ccccc3)cc2n1`, the DAPI nuclei signal change (viability), lower = more cytotoxic was -22.1%.

Turning to `Cc1ccc(-c2nn(-c3ccccc3)cc2CSC(=N)N)cc1`, the DAPI nuclei signal change (viability), lower = more cytotoxic is -16.5%.

In the case of `COc1cc(-c2coc3c(C(=O)NCc4ccc(C(F)(F)F)cc4)cccc23)ccc1O`, the DAPI nuclei signal change (viability), lower = more cytotoxic was -49.7%.

As for `Cc1cc2c(cc1C)CSC(c1ccccc1O)SC2`, the DAPI nuclei signal change (viability), lower = more cytotoxic was -12.8%.

In the case of `COc1cccc2sc(Nc3nc(-c4cc5ccccc5oc4=O)cs3)nc12`, the DAPI nuclei signal change (viability), lower = more cytotoxic came to 34.9%.

For `Cc1ccc2c(=O)n3c(nc2c1)C(Cc1ccc(O)cc1)NC(=O)c1cc2ccccc2cc1-3` (configuration not stated), the DAPI nuclei signal change (viability), lower = more cytotoxic is -30.8%.

`O=C(N/N=C/c1ccc2c(c1)OCO2)c1cc(-c2ccncc2)nc2ccccc12`: the DAPI nuclei signal change (viability), lower = more cytotoxic is -17.5%.

With `CC1=CC(C)(C)Nc2ccc(OC(=O)CCN3C(=O)c4ccccc4C3=O)cc21`, the DAPI nuclei signal change (viability), lower = more cytotoxic was -14.9%.

Turning to `COc1ccc(CCNc2nnc(Sc3nnnn3-c3ccccc3)s2)cc1OC`, the DAPI nuclei signal change (viability), lower = more cytotoxic is -35.1%.

Regarding `CCN1CCC(O)(/C=C/c2ccc(C(C)C)cc2)C(C(=O)/C=C/c2ccc(C(C)C)cc2)C1` (configuration not stated), the DAPI nuclei signal change (viability), lower = more cytotoxic was -49%.

With `CN=C1c2cc3cc(OC)ccc3n2CCN1Cc1ccccc1`, the DAPI nuclei signal change (viability), lower = more cytotoxic is -15.6%.

For `CC(C)N1CSC(=S)N(Cc2ccccc2)C1`, the DAPI nuclei signal change (viability), lower = more cytotoxic was -42.1%.

`Cc1ccc2c(c1)-c1c(cnn1CC(=O)Nc1ccccc1N1CCN(C)CC1)CO2`: the DAPI nuclei signal change (viability), lower = more cytotoxic was -24.3%.

For `Cn1ncc2c(O/N=C(\N)c3ccc(C(C)(C)C)cc3)ncnc21`, the DAPI nuclei signal change (viability), lower = more cytotoxic is -30.1%.

Consider `COc1ccc(N2CCN(CC(=O)c3c(C)n(C)c4ccc(OC)cc34)CC2)cc1`, for which the DAPI nuclei signal change (viability), lower = more cytotoxic was -19.2%.

Take `CCn1c(Cl)c(C=O)s/c1=N\S(=O)(=O)c1ccccc1`: the DAPI nuclei signal change (viability), lower = more cytotoxic was -26.9%.

Take `Cc1cc(C)n(-c2nc3c(c(=O)[nH]c(=O)n3C)n2CC(O)COc2ccc(Cl)cc2Cl)n1` (configuration not stated): the DAPI nuclei signal change (viability), lower = more cytotoxic was -31.2%.

Take `COC(=O)[C@@H](CC(C)C)N(Cc1ccccc1)S(=O)(=O)N(Cc1ccccc1)[C@@H](CC(C)C)C(=O)OC`: the DAPI nuclei signal change (viability), lower = more cytotoxic was -41.5%.

As for `COC(=O)C1=C(C)N(Cc2ccccc2)C(=NCc2ccc(OC)cc2)N[C@H]1c1ccccc1`, the DAPI nuclei signal change (viability), lower = more cytotoxic is -26.3%.

For the molecule `CC(=O)n1cc(N(C(=O)CCl)c2ccc(Cl)cc2)c2ccccc21`, the DAPI nuclei signal change (viability), lower = more cytotoxic was -23.1%.

`CSc1ccc(/C=C/C(=O)c2ccc(NC(=O)Cc3ccccc3)cc2)cc1`: the DAPI nuclei signal change (viability), lower = more cytotoxic was -2.22%.

With `CC(C)(C)N(Cc1ccc2c(c1)OCO2)C(=O)/C=C\S(=O)c1ccccc1` (configuration not stated), the DAPI nuclei signal change (viability), lower = more cytotoxic was -13.5%.

As for `CCOC(=O)c1ccc(NC(=O)Cn2ncc(Cl)c(Cl)c2=O)cc1`, the DAPI nuclei signal change (viability), lower = more cytotoxic was -15.9%.

In the case of `O=c1c(N=Nc2ccc(O)cc2)c(-c2ccccc2)[nH]n1-c1ccc([N+](=O)[O-])cc1`, the DAPI nuclei signal change (viability), lower = more cytotoxic was -46.7%.

As to `COc1ccc(-c2nc(N/N=C(\C)c3ccc(O)cc3)c3ccccc3n2)cc1`, the DAPI nuclei signal change (viability), lower = more cytotoxic was -11.9%.

As for `COc1ccc(CCNC(=O)Cc2cc(OCc3ccccc3)c(OC)cc2[N+](=O)[O-])cc1OC`, the DAPI nuclei signal change (viability), lower = more cytotoxic is -26.9%.

Take `O=[N+]([O-])c1ccc(N=Nc2ccc(O)c3ccccc23)cc1`: the DAPI nuclei signal change (viability), lower = more cytotoxic was -29.9%.

Take `CCCCN(C)C(=O)CCCCn1c(=O)[nH]c2cc(OCC)c(OCC)cc2c1=O`: the DAPI nuclei signal change (viability), lower = more cytotoxic was 4.25%.

On to `CC(C)N(C#N)c1nc(N2CCOCC2)nc(N2CCOCC2)n1`, for which the DAPI nuclei signal change (viability), lower = more cytotoxic is -13%.
